Test results published in PubChem BioAssay AID463173 (ICCB-Longwood Screening Facility, Harvard Medical School, 2010).
About 1,700 (3.3%) of roughly 52,000 compounds were called active. Cut-off read from the data, not from the text of the source: active = survival mostly below about 52% (no sharp cut-off); inactive = mostly above about 56%. The list shows a part of the results.

The molecules below were run on Wild type (assay: growth inhibition of S. aureus wild type versus tarO mutant, primary screen, teichoic acid synthesis inhibitors, RN4220, OD600 (AID 463173)). Conditions: S. aureus RN4220 wild type/DeltatarO growth, OD600, 18 h, hits give low values, screened at 18.75 µg/mL (by protocol).
With `COc1cccc(CNC(=O)CN2C(=O)COc3ccc(S(=O)(=O)N4CCCCC4)cc32)c1` the survival was inactive: 100%. With `Cn1cc(S(=O)(=O)N2CCCC2)cc1C(=O)Nc1ccc(F)cc1F` the survival was inactive: 86%. For `CCOC(=O)c1ccc(NC(=O)Cc2noc3ccc(C)cc23)cc1`, the survival was inactive: 79%. In the case of `O=c1ccn2c(n1)OC1C(O)C(CO)OC12` (configuration not stated), the survival is reported as inactive: 112%. For `Nc1ccc2nc(-c3ccc(N)c(Cl)c3)[nH]c2c1`, the survival was inactive: 117%. With `O=C(C1CCN(S(=O)(=O)c2cccs2)CC1)N1CCN(c2ccccc2F)CC1` the survival was inactive: 142%. `Cc1ccc(CNC(=O)CCCCCn2c(=O)c3sccc3n(CC(=O)N3CCCCC3C)c2=O)cc1` (configuration not stated) was tested, and the survival was inactive: 77%. In the case of `O=C(CCCCCn1c(=O)[nH]c2ccccc2c1=O)N1CCN(c2cccc(C(F)(F)F)c2)CC1`, the survival is reported as inactive: 77%. `CCCCC12CN3CC(C)(CN(C1)C3c1ccc(OCc3ccccc3)cc1)C2=O` (configuration not stated) was tested, and the survival was inactive: 92%. For `CC1=C(C(=O)Nc2ccccc2Br)C2(CCC(C)CC2)OC1=O` (configuration not stated), the survival was inactive: 83%. In the case of `Cc1ccc(-c2nc3sc(CCNC(=O)c4ccc(F)c(F)c4)c(C)n3n2)cc1`, the survival is reported as inactive: 71%. For `O=C(CC(c1ccccc1)C1CCCCC1=O)c1ccco1` (configuration not stated), the survival was inactive: 108%. `Cc1ccccc1NC(=O)c1sc2nc(-c3cc4ccccc4oc3=O)[nH]c(=O)c2c1C` was tested, and the survival was inactive: 90%. `COc1ccc(/C=C/C(=O)NCc2ccccn2)cc1OC` was tested, and the survival was inactive: 89%. With `CCN(C(=O)Cn1c(C(=O)OC)cc2sccc21)c1cccc(C)c1` the survival was inactive: 73%. In the case of `FC(F)(F)c1cccc(Nc2nc3nonc3nc2Nc2ccc(Cl)cc2)c1`, the survival is reported as active: -3%. For `COc1ccc(C)cc1NC(=O)CN(C)S(=O)(=O)c1ccc2c(c1)c(=O)n(C)c(=O)n2C`, the survival was inactive: 81%. For `Cc1ccccc1NC(=O)c1c(C)oc2ccc(O)c(CN3CCCCCC3)c12`, the survival was inactive: 108%. `CCC(CC)C(=O)Nc1ccc(S(=O)(=O)N2CCC(c3nc4ccccc4s3)CC2)cc1` was tested, and the survival was inactive: 87%. `Cc1nc(-c2ccc(S(=O)(=O)N3CCN(c4ccccc4F)CC3)cc2)co1` was tested, and the survival was inactive: 74%. With `CC(C)NC(=O)c1ccc(CSc2nc3ccncc3n2Cc2cccc(F)c2)cc1` the survival was inactive: 73%. In the case of `CC1SC(=NC(=O)c2ccco2)NC1=O` (configuration not stated), the survival is reported as inactive: 100%. In the case of `CCCn1cc(S(=O)(=O)c2ccc(C)c(C)c2)c(=O)c2cc(F)c(N3CCCCC3)cc21`, the survival is reported as inactive: 126%. With `CC1CCCCN1C(=O)Cn1nnc2c(cnn2-c2ccccc2)c1=O` (configuration not stated) the survival was inactive: 111%. With `CC1=C(c2ccc(C(C)C)cc2)S(=O)(=O)N=C1N1CCC(C(=O)NCc2ccc(C)o2)CC1` the survival was inactive: 63%. With `O=C(NC1CCCCC1)c1ccc(CSc2nc3cccnc3n2Cc2ccccc2)cc1` the survival was inactive: 81%. With `Cc1ccccc1-c1noc(-c2ccc(NCc3cccnc3)c([N+](=O)[O-])c2)n1` the survival was inactive: 121%. In the case of `CC(=O)Nc1cccc(NC(=O)CSc2nccn2Cc2ccccc2)c1`, the survival is reported as inactive: 65%. For `Cc1ccc(CN(Cc2cccn2-c2nnc(N3CCCC3=O)s2)C(=O)Nc2ccccc2Cl)cc1`, the survival was inactive: 115%. `O=C(COc1ccccc1-c1nc(-c2ccccc2)no1)Nc1ccc([N+](=O)[O-])cc1` was tested, and the survival was inactive: 82%. For `Cc1cc(C)c2c(NC(=O)c3ccccc3Cl)c(C(=O)NCc3ccc(Cl)cc3)sc2n1`, the survival was inactive: 66%. In the case of `Cc1c(CC(=O)NCCc2ccccc2)c(=O)oc2c(C)c3occ(C(C)(C)C)c3cc12`, the survival is reported as inactive: 84%. `CC(=O)c1cccc(NC(=O)Cn2ccn3nc(-c4ccccc4)cc3c2=O)c1` was tested, and the survival was inactive: 68%. `Cc1cc(Nc2cc(Cl)ccc2C)n2nc(-c3ccccc3)nc2n1` was tested, and the survival was inactive: 93%. In the case of `COc1ccc(OCCCn2c(C3CC(=O)N(c4ccc(F)cc4)C3)nc3ccccc32)cc1` (configuration not stated), the survival is reported as inactive: 85%. For `CCOC(=O)c1c(C)[nH]c(CCC(=O)NCc2ccc(OC)cc2OC)c1C`, the survival was inactive: 85%. For `Cc1nc2c(-c3ccc(F)cc3)c(C)nn2c(C)c1CCC(=O)NCc1ccc(F)cc1`, the survival was inactive: 92%. For `COc1ccc(OC)c(-c2noc(N3CCN(c4cccc(C(F)(F)F)c4)CC3)n2)c1`, the survival was inactive: 136%. `CC(C)CCNC(=O)c1cc(-c2cccnc2)nc2ccc(S(=O)(=O)N3CCC(C)CC3)cc12` was tested, and the survival was inactive: 71%. With `O=C(CSc1nc2c([nH]c3ccccc32)c(=O)n1-c1ccccc1)N1CCCCC1` the survival was inactive: 69%. For `COc1ccc(NC(=O)c2nnn(-c3ccc(C(C)C)cc3)c2C)c(OC)c1`, the survival was inactive: 90%. For `O=C(CC1(O)C(=O)Nc2ccccc21)c1ccccc1O` (configuration not stated), the survival was inactive: 91%. `CCOc1ccc(-c2cc(C(=O)NCCc3ccc(C)cc3)c3ccccc3n2)cc1` was tested, and the survival was inactive: 64%. With `Cc1cccc(-n2c3nc(=O)[nH]c(=O)c-3cc3ccc(Cl)cc32)c1C` the survival was inactive: 82%. `Cc1ccc(NC(=O)CN2C(=O)c3ccccc3C2=O)c(C)c1` was tested, and the survival was inactive: 103%. In the case of `Cn1c(CN2CCOCC2)nc2cc(NC(=O)c3ccccc3[N+](=O)[O-])ccc21`, the survival is reported as inactive: 116%. With `CCOc1cccc2sc(N3CCN(C(=O)c4ccco4)CC3)nc12` the survival was inactive: 67%. `O=C(NCCCN1CCN(c2ccc(F)cc2)CC1)Nc1ccccc1Cl` was tested, and the survival was inactive: 133%. With `COc1cc(OC)c(NC(=O)c2ccc(-n3cnc4cccnc43)cc2)cc1Cl` the survival was inactive: 64%. `CCOC(=O)CC(NC(=O)Cn1nnc(-c2ccc(Cl)cc2)n1)c1ccc(OC)cc1` (configuration not stated) was tested, and the survival was inactive: 100%. With `CC(C)N(C(=O)CSc1nnc(-c2cccnc2)n1Cc1ccccc1)C(C)C` the survival was inactive: 104%. `COc1cc(NC(=O)CN2CCCN(Cc3cccc(F)c3)S2(=O)=O)cc(OC)c1` was tested, and the survival was inactive: 88%. With `CCOC(=O)c1c(C)oc2nc(C)nc(NCCc3ccc(C)cc3)c12` the survival was inactive: 73%. For `CCCc1cc(N2CCN(c3ccccc3F)CC2)n2cnnc2n1`, the survival was inactive: 79%. `Cc1ccc(CN2C(=O)c3ccccc3Sc3ccc(C(=O)N4CCOCC4)cc32)cc1` was tested, and the survival was inactive: 70%. For `Cc1cccc(C(=O)Nc2ccc(N3CC=C(c4ccccc4C)CC3)c(C(=O)O)c2)c1`, the survival was inactive: 66%. In the case of `CC1=C(C(=O)N2CCCCC2)C(c2ccc(Cl)cc2)n2c(nc3ccccc32)N1` (configuration not stated), the survival is reported as inactive: 69%.
